# Measured values reported in article PMC4336329 (PLoS ONE, 2015).
# Hit rate of the full screen: of about 310,000 compounds, about 14,000 (4.5%) showed an effect of 50% or more. The effect is printed as a negative number. This is one part of the list.
# Biological target: human ether-à-go-go-related gene (hERG) potassium channel (human, UniProt Q12809)
# Assay: primary screen, population patch clamp on CHO cells stably expressing hERG
# 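Also: peak tail current of the secondary pulse compared with the same well before compound.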
# Chain of human ether-à-go-go-related gene (hERG) potassium channel (Q12809 whole entry, looked up): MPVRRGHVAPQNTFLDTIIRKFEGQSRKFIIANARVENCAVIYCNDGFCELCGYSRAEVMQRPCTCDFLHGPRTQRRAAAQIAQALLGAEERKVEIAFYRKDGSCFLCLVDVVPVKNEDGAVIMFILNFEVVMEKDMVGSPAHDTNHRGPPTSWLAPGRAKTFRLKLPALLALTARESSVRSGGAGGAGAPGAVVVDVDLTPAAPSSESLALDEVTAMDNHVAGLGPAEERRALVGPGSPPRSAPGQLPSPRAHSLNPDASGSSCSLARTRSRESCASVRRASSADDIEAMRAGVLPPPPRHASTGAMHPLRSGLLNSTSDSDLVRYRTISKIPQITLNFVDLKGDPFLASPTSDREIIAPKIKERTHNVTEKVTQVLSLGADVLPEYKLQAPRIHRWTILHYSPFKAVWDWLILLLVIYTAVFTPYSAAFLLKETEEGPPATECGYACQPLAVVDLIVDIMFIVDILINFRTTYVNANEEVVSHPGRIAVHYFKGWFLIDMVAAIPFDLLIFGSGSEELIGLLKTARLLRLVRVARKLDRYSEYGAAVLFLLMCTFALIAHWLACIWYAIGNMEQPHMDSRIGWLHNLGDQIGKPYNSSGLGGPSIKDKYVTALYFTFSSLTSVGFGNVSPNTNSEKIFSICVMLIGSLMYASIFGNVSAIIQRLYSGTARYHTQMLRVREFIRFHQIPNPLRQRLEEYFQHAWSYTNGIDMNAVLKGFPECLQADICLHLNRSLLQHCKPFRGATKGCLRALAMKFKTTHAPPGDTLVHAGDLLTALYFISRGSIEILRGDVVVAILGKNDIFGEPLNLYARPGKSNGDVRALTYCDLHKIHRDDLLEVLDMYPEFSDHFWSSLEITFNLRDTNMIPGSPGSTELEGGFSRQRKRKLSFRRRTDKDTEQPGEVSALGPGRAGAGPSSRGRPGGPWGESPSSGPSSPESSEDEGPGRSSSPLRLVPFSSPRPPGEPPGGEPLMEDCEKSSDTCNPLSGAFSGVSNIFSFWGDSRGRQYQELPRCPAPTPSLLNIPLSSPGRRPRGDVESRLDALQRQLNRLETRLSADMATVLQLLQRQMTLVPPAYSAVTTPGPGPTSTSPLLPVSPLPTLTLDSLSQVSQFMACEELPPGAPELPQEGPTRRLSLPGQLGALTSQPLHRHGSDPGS
row,Compound,"hERG current change (%, negative = inhibition) at 10uM [%]"
1,Cc1c2cnn(CC(=O)N3CCC4(CC3)OCCO4)c(=O)c2c(C)n1Cc1cccc(Cl)c1,1.18
2,CC(=O)N1N=C(c2c(O)n(C)c(=O)n(C)c2=O)CC1c1ccccc1 (stereo not shown),17.5
3,Cn1nc(C(=O)NCc2cccc(Cl)c2)c2c1-c1ccccc1S(=O)(=O)C2,9.4
4,CCC(=O)Nc1cccc(-n2nnnc2SCC(=O)c2ccc(C)c(C)c2)c1,-13.5
5,Cc1ccc(NC(=O)CN2C(=O)COc3ccc(S(=O)(=O)N4CCOCC4)cc32)cc1F,19.9
6,COc1ccc(OC)c(S(=O)(=O)NCc2ccccn2)c1,11.9
7,O=C(Oc1cc(=O)oc2ccccc12)c1ccco1,9.06
8,C=CCNC(NC(=O)c1ccccc1)(C(=O)OCC)C(F)(F)F (stereo not shown),19.2
9,O=c1c2ccccc2nc(-c2ccccc2)n1-c1ccncc1,-14.9
10,Cc1cccc(C)c1NC(=O)CN(C)c1ccc(C(F)(F)F)cn1,1.18
11,CCOc1ccc(OCC)c(NC(=O)C2CCCN(c3nc(C)cc(C)n3)C2)c1 (stereo not shown),-3.69
12,Nc1c(S(=O)(=O)c2ccccc2)nnn1-c1ccccc1,5.69
13,CCCNC(=O)C(NS(=O)(=O)c1cccc2nsnc12)c1ccccc1 (stereo not shown),0.65
14,COc1ccc(-c2[nH]c3ccccc3c2SCCNC(=O)c2cc3ccccc3oc2=O)cc1,-0.175
15,CC(NC(=O)CN(c1ccc(Br)cc1)S(C)(=O)=O)c1ccccc1 (stereo not shown),-4.37
16,CC(C)[C@H](NC(=O)N1c2ccccc2NC(=O)[C@@H]1C(C)C)C(=O)N[C@H](C(=O)O)c1ccccc1,-5.05
17,Cc1nc(SCC(N)=O)c([N+](=O)[O-])[nH]1,-31.7
18,CC(C)N(C(=O)CSc1nnc(Cc2csc(Nc3ccccc3)n2)o1)C(C)C,18.1
19,O=C(CSc1ccccn1)c1ccc(F)cc1,-22.6
20,COC(=O)[C@@H]1[C@@H](C)OC(=O)N[C@H]1c1ccccc1,-11.7
21,COc1cc(/C=C2\SC(N3CCc4ccccc4C3)=NC2=O)cc(OC)c1OC,-8.19
22,COc1ccccc1NC(=O)C1CCN(S(=O)(=O)c2ccc3c(c2)NC(=O)C(C)S3)CC1 (stereo not shown),0.624

row,Compound,"hERG current change (%, negative = inhibition) at 10uM [%]"
1,COc1ccc2oc(C(=O)N(CC(C)C)C3CCS(=O)(=O)C3)c(C)c2c1 (stereo not shown),-23.5
2,COc1cccc(OC)c1C(=O)OCC(=O)Nc1ccc(OC(F)(F)F)cc1,-28.9
3,O=C(N/C(=C/c1ccc(Br)cc1)C(=O)N1CCCC1)c1ccccc1F,-71.5
4,CC(NC(=O)c1cc2ccccc2o1)c1cccs1 (stereo not shown),-15.6
5,Cc1nnc2sc(SCC(=O)Nc3ccc(Br)cc3)nn2c1=O,2.87
6,Cc1ccc(S(=O)(=O)NC(C(=O)O)c2ccccc2)cc1 (stereo not shown),15.1
7,FC(F)(F)c1cnc(Oc2ccc(-c3nnco3)cc2)c(Cl)c1,7.1
8,NC(=O)c1nsc(C(=O)N(c2ccccc2)C(C(=O)NC2CCCCC2)c2ccc(O)cc2)c1N (stereo not shown),2.65
9,CC(=O)Nc1ccc(NC(=O)C2CCCN2/C=C/C(=O)C(F)(F)F)cc1 (stereo not shown),7.83
10,COC(=O)N/N=C/c1cc(Cl)cc(Cl)c1OCc1ccc(F)cc1,3.82
11,COc1ccc(S(=O)(=O)Nc2nc3n(n2)C(c2ccc(Cl)cc2)CC(=O)N3)cc1 (stereo not shown),7.32
12,O=C(Nc1ccccc1C(=O)NCc1cccnc1)c1cccc([N+](=O)[O-])c1,-1.36
13,O=C(COc1ccccc1)N1CCN=C1SCc1ccccc1,-16.8
14,O=C(CN1C(=O)c2ccc([N+](=O)[O-])cc2C1=O)NCc1ccco1,12.4
15,Cn1cc(S(=O)(=O)NC(c2ccccc2)c2ccccc2)c(=O)n(C)c1=O,-3.83
16,O=C1c2ccccc2C(=O)N1CC(=O)N1c2ccccc2Sc2ccccc21,-28.7
17,O=C(Cc1ccc(Cl)cc1)Nc1ccc(N2CCN(C(=O)c3ccco3)CC2)c(Cl)c1,-10.4
18,CCOc1cccc(OCCOCCOc2ccccc2C(C)=O)c1,-7.23
19,OCC[C@@H]1C[C@@H](O)[C@H](O)[C@@]2(CCc3ccccc3CO2)O1,12.2
20,O=C(NCc1cccnc1)Nc1ccccc1Cl,17.9
21,COc1ccc(-n2c(SCC(=O)Nc3ccc(C(=O)O)cc3)nnc2-c2ccccc2)cc1OC,-3.47
22,CCCN(CCC)CCN1C(=O)C2C(C(=O)Nc3cccc(SC)c3)C3C=CC2(O3)C1C(=O)NC1CCCCC1 (stereo not shown),-68.2

row,Compound,"hERG current change (%, negative = inhibition) at 10uM [%]"
1,CCOC(=O)c1ccc(CN2C(=O)c3ccccc3S2(=O)=O)cc1,-10.8
2,COc1ccc(CCN(C)CCC(=O)Nc2c(C)cc(C)cc2C)cc1OC,-58.8
3,CCn1c(N2CCC(Cc3ccccc3)CC2)nc2c1c(=O)[nH]c(=O)n2C,-39
4,O=C(NNC(=S)NC(=O)c1cccc([N+](=O)[O-])c1)c1ccc(Br)cc1,17.7
5,O=C(NCCCN1CCOCC1)C(=O)N/N=C/c1ccccc1O,4.52
6,COc1ccc(CNC(C)(C)C)cc1Cl.Cl,-21.6
7,COc1ccc2cc(C(=O)N3CCN(C)CC3)[nH]c2c1,3.05
8,CN1CCN(S(=O)(=O)c2ccc(Br)s2)CC1,-8.26
9,O=C(NCCc1ccccc1)C1CCN(c2nc3ccccc3o2)CC1,-25.9
10,CC(=O)Nc1ccc(SC[C@H](c2ccccc2)N2CCN(CCc3ccccc3)CCC2=O)cc1,-75.1
11,CC(c1ccccc1F)n1cc(C(=O)NCCCn2ccnc2)nn1 (stereo not shown),8.49
12,O=C(O)c1ccccc1N/C=C\[N+](=O)[O-],13.9
13,O=S(=O)(Cc1ccccc1)N1CCCC(c2nc(-c3ccc(F)cc3)no2)C1 (stereo not shown),-3.59
14,COc1ccc(OC)c(C2CC(=O)N3CN(c4cccc(Cl)c4)CSC3=C2C#N)c1 (stereo not shown),19.1
15,CCn1cc(C(=O)N[C@@H](CCSC)C(=O)NCCCn2ccnc2)c(=O)c2cc3c(cc21)OCO3,24.7
16,O=C(NCCO)c1ccc(-c2nnc(N3CCOCC3)c3ccccc23)cc1,6.26
17,Cc1ccc(S[C@@H](CCN2CC[C@H](NC(=O)OCc3ccccc3)CCC2=O)c2ccccc2)cc1,-26.1
18,Cc1ccc(C(=O)C(=S)N2CCOCC2)cc1,-0.0216
19,O=C1CCC(=O)N1OCCOc1ccccc1,3.24
20,CCCOc1ccc(Cc2c(Cl)nc(SC)nc2N(C)C)cc1,14.2
21,Nc1cc(=O)[nH]c(N)n1,15.9
22,O=C(Cn1ccc([N+](=O)[O-])n1)NCc1ccco1,2.96

row,Compound,"hERG current change (%, negative = inhibition) at 10uM [%]"
1,Cc1ccc(S(C)(=O)=N/C=C2\C(=O)c3sccc3N(C)S2(=O)=O)cc1 (stereo not shown),-36.2
2,COc1ccc(C(=O)NNC(=O)c2ccc(S(=O)(=O)N3CCCCC3)cc2)cc1,0.716
3,Cc1cccc(C)c1NC(=O)CN1C(=O)C2CC=CCC2C1=O (stereo not shown),14.4
4,COc1ccc(Cn2nnc3c(=O)[nH]c(C4CCCN(C(=O)c5ccccc5)C4)nc32)cc1 (stereo not shown),-22.5
5,CC(C)CCNC(=O)CNC(=S)N(CCCN1CCOCC1)Cc1cccs1,-32.6
6,Cl.Cn1cccc1CNCC(O)c1ccccc1 (stereo not shown),-21.8
7,Cc1cccc(NC(=O)CSc2nnc(Cn3nnc(-c4ccccc4)n3)n2-c2ccccc2)c1,1.21
8,Cc1cccc(-c2nsc(SCC(=O)Nc3ccc4c(c3)OCO4)n2)c1,-16.2
9,NC(=O)NC(CC(=O)NCCc1ccccn1)c1ccccc1Cl (stereo not shown),14.1
10,CCC(=O)N1CCc2cc(S(=O)(=O)N3CCN(c4ccccc4)CC3)ccc21,12.2
11,COc1cccc(CNCc2ccccc2Br)c1OC.O=C(O)C(=O)O,4.22
12,COc1ccc(N(CC(=O)Nc2cccnc2)S(=O)(=O)c2ccccc2)cc1Cl,-28.1
13,COc1cc(CCCN[C@H](CN)Cc2ccccc2)cc(OC)c1OC,-4.22
14,C#CCOCCOCCOCCNc1nc(N2CCN(C(=O)[C@H](CCCCN)n3cc([C@@H](N)C(C)CC)nn3)CC2)nc(N2CCN(C(=O)[C@H](CCCCN)n3cc([C@@H](N)CC(C)C)nn3)CC2)n1.Cl (stereo partly shown),4.49
15,CCOc1ccc(NC(=O)C(Cc2ccccc2)NC(=O)C2CCCCC2)cc1 (stereo not shown),2.8
16,CCOC(=O)c1cnn(Cc2ccccc2Cl)c1N,-11
17,CC12COC3(C(=O)NCCc4ccccc4)CC1CCC32C (stereo not shown),15.1
18,CCOCCCn1c(=S)[nH]c2cc(C(=O)NCc3ccc(F)cc3)ccc2c1=O,9.11
19,CCOc1ccccc1N(C(=O)CNS(=O)(=O)c1ccccc1)C(CC)C(=O)NCc1ccco1 (stereo not shown),2.71
